This is one part of the list. These are further read-outs of the screen, such as a control signal, another cell line or another target. No call is given for them.
Assays:
Experiment in all cases: Primary Screen for Target Class Profiling of Small Molecule Inhibitors of Methyltransferases
[1] = target: Glycine N-methyltransferase (Homo sapiens) (UniProt Q14749); conditions: purified enzyme, MTase-Glo SAH luminescence; measured here: GNMT inhibition; at 40 µM; stronger effect = lower value
How it was run: (§1)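 Each enzyme was reacted with SAM and its substrate, with compounds tested once at 40 uM; SAH formed was read by MTase-Glo luminescence.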

[2] = target: Guanidinoacetate N-methyltransferase (Homo sapiens) (UniProt Q14353); conditions: purified enzyme, MTase-Glo SAH luminescence; measured here: GAMT inhibition; at 40 µM; stronger effect = lower value
How it was run: as §1

[3] = target: Histamine N-methyltransferase (Homo sapiens) (UniProt P50135); conditions: purified enzyme, MTase-Glo SAH luminescence; measured here: HNMT inhibition; at 40 µM; stronger effect = lower value
How it was run: as §1

[4] = target: Nicotinamide N-methyltransferase (Homo sapiens) (UniProt P40261); conditions: purified enzyme, MTase-Glo SAH luminescence; measured here: NNMT inhibition; at 40 µM; stronger effect = lower value
How it was run: as §1

[5] = target: Phenylethanolamine N-methyltransferase (Homo sapiens) (UniProt P11086); conditions: purified enzyme, MTase-Glo SAH luminescence; measured here: PNMT inhibition; at 40 µM; stronger effect = lower value
How it was run: as §1
On the % scale 0 is the no-effect control and ±100 the full control effect.

Row | SMILES | activity change, negative = inhibition [1] [%] | activity change, negative = inhibition [2] [%] | activity change, negative = inhibition [3] [%] | activity change, negative = inhibition [4] [%] | activity change, negative = inhibition [5] [%]
1 | O=C(CCc1nnc2n(Cc3ccc(F)cc3)c(=O)c3ccccc3n12)N1CCN(Cc2ccccc2)CC1 | -14.9 | -2.83 | -8.07 | -29.2 | -6.69
2 | COc1ccc(CN2C[C@@H](F)[C@@H](OCc3nc4ccncc4[nH]3)C2)cc1 | -2.16 | 0.597 | -7.32 | -9.44 | 6.27
3 | CC1CCN(S(=O)(=O)c2ccc3c(ccn3CC(=O)NCc3ccc4c(c3)OCO4)c2)CC1 | 2.06 | 0.259 | 3.94 | 1.07 | 1.68
4 | COc1ccc(NC(=O)C2CCCN(c3cnn(Cc4ccccc4)c(=O)c3)C2)cc1OC (stereo not given) | -11.2 | -2.4 | -2.08 | -6.71 | -2.3
5 | COc1ccc2[nH]cc(C(=O)Cn3nc4n(Cc5ccccc5)c(=O)c5ccccc5n4c3=O)c2c1 | 1.02 | 0.427 | 6.13 | -1.83 | 0.257
6 | Cc1ccc(-c2cc3n(n2)CCCN(C(=O)c2cc(CN4CCOCC4)on2)C3)o1 | -7 | -4.99 | -0.485 | -9.06 | -9.62
7 | CS(=O)(=O)NC1CCN(Cc2cc(=O)c3cc(C(N)=O)ccc3[nH]2)CC1 | 0.034 | 0.136 | 0.9 | -3.94 | -3.1
8 | CCCn1c(=O)c2ccc(C(=O)NCC(C)C)cc2n2c(SCC(=O)Nc3ccc(C)cc3C)nnc12 | -0.435 | 6.77 | -1.34 | 1.94 | -2.08
9 | CCCOc1ccc(CN2C(=O)c3cc4occc4n3CC2(C)C(=O)NC2CCCCC2)cc1 (stereo not given) | 0.927 | 2.07 | 5.87 | -2.32 | 2.06
10 | O=C1CN(Cc2ccc(Br)cc2)S(=O)(=O)c2ccccc2N1Cc1ccc(F)cc1 | -0.602 | 0.422 | -2.53 | -4.83 | -4.75
11 | COc1ccccc1/C=C/CN1CCn2nc(CO)cc2C1 | -7.16 | -1.66 | -2.4 | -7.42 | -1.14
12 | CN1C2CCCC1CC(NC(=O)c1nn(C)c3ccccc13)C2 (stereo not given) | -4.01 | 3.93 | -25.9 | -8.79 | 3.49
13 | CC1(C(=O)NC2CCCCCC2)Cn2c(nc3ccccc32)C(=O)N1Cc1ccc(Cl)cc1 (stereo not given) | -4.75 | -1.2 | -1.67 | -9.02 | -8.92
14 | CCOC(=O)c1ccc2c(c1)[C@@H]1C=CC[C@@H]1[C@H](c1ccccc1Br)N2 | -10.1 | 0 | -7.03 | -12.8 | -10.5
15 | Cc1cccc(CCN2CCC3(CC2)C(C(=O)O)CC(=O)N3C)n1 (stereo not given) | 1.32 | 2.47 | 1.28 | -1.08 | -1.08
16 | CC1(C(=O)NC2CCCCCC2)Cn2c(ccc2-c2ccco2)C(=O)N1Cc1ccc(F)cc1 (stereo not given) | 1.15 | 4.14 | 7.35 | -3.15 | 0.095
17 | CC1CCN(C(=O)C2(c3ccc(NC(=O)C4CC4)cc3)CCCCC2)CC1 | -5.62 | -8.32 | -1.22 | -8.51 | -2.82
18 | Cc1cnc(C2CCOCC2)n1CCN | -0.037 | 2.27 | 1.96 | -2.77 | 0.09
19 | CCC(C)NC(=O)c1ccc2c(=O)n(CC(C)C)c3nn(CC(=O)NC4CCCCC4)c(=O)n3c2c1 (stereo not given) | 7.38 | 0 | 8.25 | 4.42 | 6.59
